# Results published in the supplement of paper PMC3334620.
# The full ranking holds about 33,000 sequences; the median of “E-score (-0.5 to 0.5)” is about -0.016, and the highest 2% start at about 0.31. The list shows a part of the results.
# Biological target: Cst6 (UniProt P40535)
# Assay: PBM E-score (8-mer binding enrichment) (E-score (-0.5 to 0.5)); higher = stronger / more preferred TF binding; most listed sequences are background and not binding sites
# Conditions: protein concentration: 200 nM; construct: GST-DNA-binding domain
# Summary of the method: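 Yeast transcription factors, full-length or as DNA-binding domains, were expressed with a GST tag using PURExpress in vitro transcription/translation. At about 100-200 nM they were applied to universal all-10-mer Agilent arrays, double-stranded by primer extension on fresh or once-stripped slides. Fluorescent anti-GST detected bound protein, and masliner normalised the scans. E-scores for ungapped eight-base words, pooled with reverse complements, came from the Universal PBM Analysis Suite.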
row,Sequence,PBM E-score
1,TGCTGCAA,0.159
2,CCGACCAG,-0.184
3,ATAGGTGA,0.157
4,AACCTTGA,0.138
5,CGCCGGAA,-0.127
6,ACCGGCCT,-0.168
7,CTGTCCCC,-0.408
8,GACACCAA,0.0823
9,ATAATCTA,0.0831
10,GGCGTCCC,-0.225
11,CGCCCTAA,-0.163
12,CAGCCAGC,-0.246
13,ATAAGACC,-0.135
14,ACCGCGCC,0.0276
15,AGTGAACC,-0.0808
16,CACGAAAG,0.0816
17,GTCTTAAA,-0.118
18,CATACGTC,0.405
19,GACTGTCA,-0.0389
20,CAAGGGAA,-0.137
21,CTTTAATC,0.0364
22,CAGAAGTC,-0.0882
23,TATAGCAA,0.0214
24,CATGATAG,0.0616
25,CAAAGCGA,-0.0448

row,Sequence,PBM E-score
1,CCTTGCTC,-0.266
2,CGAACTTC,0.0142
3,AATTCGTG,0.111
4,ATGCACAC,0.053
5,AGATTAAT,0.086
6,CCCACGGA,-0.182
7,AAGGGTGT,-0.0767
8,ATGGTACG,0.103
9,GGTCTCAC,-0.0997
10,AATACGGA,0.14
11,GGCGCCTA,0.244
12,CTTTGTTC,0.126
13,AACGAGAG,0.0905
14,TAGAGCTA,-0.122
15,CAGATTAA,0.175
16,AACCGTAA,0.0115
17,GTCTGAAA,0.101
18,ACCCCAGA,-0.104
19,AGCTGCCG,0.0192
20,AGACCCAG,-0.143
21,GTCTACAA,-0.054
22,ACCCGCCA,-0.194
23,CTCGGACC,-0.18
24,GAATAATC,0.197
25,AAGGACGG,-0.251

row,Sequence,PBM E-score
1,ACAAGCAA,0.0476
2,CCGTTCCG,0.145
3,CGATGTAC,0.0211
4,CTAAGCGC,-0.179
5,CAGCCTGC,-0.179
6,CGTTCCAA,0.104
7,TAAGAAAA,0.221
8,GTTGAACA,-0.153
9,GGTCCCCA,-0.319
10,AGCCCTCA,-0.235
11,GCCCGTAC,-0.12
12,CCACAAAC,0.0274
13,CTCAAAAA,0.126
14,AAACTAGG,-0.0649
15,TTCGGCAA,0.00074
16,CAGATGCG,-0.149
17,GTTTCATA,-0.0397
18,CGCAACGA,0.0974
19,ATTTCAGA,0.0576
20,AACTTCGG,-0.0393
21,CCTAGTGA,-0.042
22,ATTCAGAC,0.0865
23,CTAAAGGC,0.0355
24,CGTTTTTA,0.118
25,GGGCATAC,-0.197

row,Sequence,PBM E-score
1,CTCTGTCA,0.0734
2,ACTCGACA,-0.0355
3,CTTTATAA,0.204
4,ACTGGTAT,-0.0791
5,ACCGGGTC,-0.147
6,CTACGATC,-0.0293
7,CGGCGTAG,0.11
8,ACATTTAC,0.168
9,ACAATTGC,0.0557
10,ACGCTCAT,0.114
11,CGCTACGC,-0.207
12,AAAGGGAC,-0.094
13,ATTTCGGG,0.0105
14,GGTCTGCA,-0.177
15,CACCTGGA,-0.135
16,TCTTGTAA,0.272
17,CTCGGTTA,0.0295
18,ACGGAAGG,-0.191
19,AACATAAC,0.204
20,CCGATTAG,-0.0995
21,ATCCTGGG,-0.125
22,CCATTTAG,-0.0974
23,GGGCGCCA,0.071
24,CCACCCTA,-0.145
25,CCATTTCG,-0.158

row,Sequence,PBM E-score
1,GACTCGGA,-0.236
2,GGTCTGAC,0.028
3,CTGTCCAA,-0.0724
4,CTTACTTC,0.204
5,CGAAAGTA,-0.108
6,GCAGCTGC,-0.0192
7,TCGGCGCA,0.071
8,AAAAACCC,-0.0383
9,CTAGTGTA,0.00066
10,GATGCTCC,-0.26
11,CCTACGAG,-0.169
12,CCTAGAGA,-0.232
13,AGATGCTG,-0.178
14,GCGTGCCC,-0.283
15,GAAAGGTA,0.0556
16,CTATCAAA,-0.039
17,CTCCGGGC,-0.207
18,CCCCGAGC,-0.153
19,TCAAGCCA,-0.0234
20,TATAAGGA,0.168
21,TAAGTAGA,0.144
22,CACCTAAG,0.108
23,GATAGACC,-0.0997
24,ATAAAAAC,0.28
25,CACCAGGC,-0.22

row,Sequence,PBM E-score
1,CAGTTTGC,0.0163
2,CATAAAGG,0.00565
3,CCTCCTAA,-0.114
4,CAGTCTCC,-0.163
5,ATTGAGCC,0.197
6,CCGGTGCA,-0.272
7,AGCTGTAA,0.0976
8,CCGGCAGG,-0.104
9,CCTTTGAG,-0.167
10,CTCATATC,-0.0325
11,TATGGTCA,0.0429
12,ATGATGCC,0.347
13,ATTCACGC,0.0513
14,GACTACGA,-0.135
15,GAAGCCCA,-0.316
16,GATGTACC,0.14
17,AACCGGGC,-0.226
18,AGTTATGG,0.0629
19,CCCTTCAG,-0.258
20,ATCTCAGA,-0.0422
21,CACCGATA,-0.0251
22,AAATCACC,0.197
23,GCACAGGA,-0.161
24,GTCAAAGA,0.0985
25,AATCCGCT,-0.0893

row,Sequence,PBM E-score
1,AACTTGAA,0.127
2,CTTTCTGA,0.192
3,CGGCGTGA,0.139
4,CCTACCAA,0.0973
5,AGGGTGCA,-0.232
6,CCCTGCGA,-0.115
7,CGTCGCAA,0.0553
8,CGTCGGCA,-0.135
9,CAGCTCAA,-0.0577
10,ATTTGGCC,0.0141
11,AACGCCTT,0.0459
12,ATCATAAT,0.291
13,CGGCGTTA,0.244
14,CTCGGTTC,-0.254
15,AAGTATTC,0.103
16,AGAGTGCT,0.00594
17,TACGTAGA,0.224
18,ACAGCTCA,-0.0394
19,CATTCCGC,-0.0695
20,ATAGACAG,0.0164
21,GGATATAC,0.0302
22,ACGGGCGC,-0.129
